# Source: the supplement of paper PMC10037445
# The full ranking holds about 2,900 compounds; the median of “NF-kB SEAP reporter activity, fold change vs agonist alone” is about 0.99, and the highest 2% start at about 2.6. This is one part of the list.
# Assays:
# RAW-Dual [1] = assay: NF-kB SEAP reporter activity, fold change vs agonist alone; cytotoxicity flag (confluency mask): not cytotoxic; higher = enhanced NF-kB activity
# Summary of the method: (§1)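 RAW-Dual macrophages were seeded in DMEM at 50,000 cells/well in 384-well plates, given 50 nL of library stock by pin tool, and given a PRR agonist 1 h later. Plates were held at 37 °C, 5% CO2 for 20 hours, after which supernatant was read for IRF by QuantiLuc luminescence and for NF-κB by QuantiBlue absorbance at 620 nm. Reporter activity is expressed as fold change over wells that received agonist alone. A well was called cytotoxic when IncuCyte confluency fell below 70% of agonist controls in both mask sets.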
# RAW-Dual [2] = assay: NF-kB SEAP reporter activity, fold change vs agonist alone; higher = enhanced NF-kB activity; settings: library stock concentration (final ~1000-fold dilution): 10 mM
# Summary of the method: as §1
# RAW-Dual [3] = assay: NF-kB SEAP reporter activity, fold change vs agonist alone; cytotoxicity flag (confluency mask): cytotoxic (confluency <70% of control); higher = enhanced NF-kB activity
# Summary of the method: as §1
# [4] = agonist: ODN 1826 (TLR9) 0.5 ug/mL
# [5] = agonist: Pam2CSK4 (TLR2/6) 0.1 ug/mL
# [6] = agonist: Pam3CSK4 (TLR2/1) 0.1 ug/mL
# [7] = cytotoxicity flag (confluency mask): not cytotoxic, agonist: Imiquimod (TLR7) […]
# [8] = cytotoxicity flag (confluency mask): not cytotoxic, agonist: MPLA (TLR4) […]
compound,measurement,setting,value
CC(=O)N[C@@H](CS)C(=O)O (library stock concentration (final ~1000-fold dilution): 10 mM),NF-kB SEAP reporter activity,RAW-Dual [1]; agonist: LPS (TLR4) 0.1 ug/mL,1.24
same,NF-kB SEAP reporter activity,RAW-Dual [1]; [4],1.1
same,NF-kB SEAP reporter activity,RAW-Dual [1]; [5],1.08
same,NF-kB SEAP reporter activity,RAW-Dual [1]; [6],1.09
CC(=O)N[C@@H](CS)C(=O)O,NF-kB SEAP reporter activity,RAW-Dual [2]; [7],1
same,NF-kB SEAP reporter activity,RAW-Dual [2]; [8],1
CC1COCCN1c1cc(C2(S(C)(=N)=O)CC2)nc(-c2ccnc3[nH]ccc23)n1 (centres undefined) (library stock concentration (final ~1000-fold dilution): 10 mM),NF-kB SEAP reporter activity,RAW-Dual [1]; agonist: LPS (TLR4) 0.1 ug/mL,2.49
same,NF-kB SEAP reporter activity,RAW-Dual [1]; [4],0.863
same,NF-kB SEAP reporter activity,RAW-Dual [1]; [5],0.82
same,NF-kB SEAP reporter activity,RAW-Dual [1]; [6],0.97
CC1COCCN1c1cc(C2(S(C)(=N)=O)CC2)nc(-c2ccnc3[nH]ccc23)n1 (centres undefined),NF-kB SEAP reporter activity,RAW-Dual [2]; [7],1.19
same,NF-kB SEAP reporter activity,RAW-Dual [2]; [8],1.34
NC(=O)OCC(COC(N)=O)c1ccccc1 (library stock concentration (final ~1000-fold dilution): 10 mM),NF-kB SEAP reporter activity,RAW-Dual [1]; agonist: LPS (TLR4) 0.1 ug/mL,0.921
same,NF-kB SEAP reporter activity,RAW-Dual [1]; [4],1.04
same,NF-kB SEAP reporter activity,RAW-Dual [1]; [5],1.05
same,NF-kB SEAP reporter activity,RAW-Dual [1]; [6],1.05
NC(=O)OCC(COC(N)=O)c1ccccc1,NF-kB SEAP reporter activity,RAW-Dual [2]; [7],0.916
same,NF-kB SEAP reporter activity,RAW-Dual [2]; [8],0.976
Cl.Cl.O=C(O)COCCN1CCN(C(c2ccccc2)c2ccc(Cl)cc2)CC1 (centres undefined),NF-kB SEAP reporter activity,RAW-Dual [2]; [7],0.936
same,NF-kB SEAP reporter activity,RAW-Dual [2]; [8],0.938
Cl.Cl.O=C(O)COCCN1CCN(C(c2ccccc2)c2ccc(Cl)cc2)CC1 (centres undefined) (library stock concentration (final ~1000-fold dilution): 10 mM),NF-kB SEAP reporter activity,RAW-Dual [1]; agonist: LPS (TLR4) 0.1 ug/mL,1.28
same,NF-kB SEAP reporter activity,RAW-Dual [1]; [4],0.984
same,NF-kB SEAP reporter activity,RAW-Dual [1]; [5],1.04
same,NF-kB SEAP reporter activity,RAW-Dual [1]; [6],0.961
OC(CC1c2ccccc2-c2cncn21)C1CCCCC1 (centres undefined) (library stock concentration (final ~1000-fold dilution): 10 mM),NF-kB SEAP reporter activity,RAW-Dual [1]; agonist: LPS (TLR4) 0.1 ug/mL,0.874
same,NF-kB SEAP reporter activity,RAW-Dual [1]; [4],0.541
same,NF-kB SEAP reporter activity,RAW-Dual [1]; [5],0.791
same,NF-kB SEAP reporter activity,RAW-Dual [1]; [6],0.512
OC(CC1c2ccccc2-c2cncn21)C1CCCCC1 (centres undefined),NF-kB SEAP reporter activity,RAW-Dual [2]; [7],0.631
same,NF-kB SEAP reporter activity,RAW-Dual [2]; [8],0.794
[O-][n+]1cccc(CO)c1 (library stock concentration (final ~1000-fold dilution): 10 mM),NF-kB SEAP reporter activity,RAW-Dual [1]; agonist: LPS (TLR4) 0.1 ug/mL,0.952
same,NF-kB SEAP reporter activity,RAW-Dual [1]; [4],1.03
same,NF-kB SEAP reporter activity,RAW-Dual [1]; [5],1.09
same,NF-kB SEAP reporter activity,RAW-Dual [1]; [6],1.08
[O-][n+]1cccc(CO)c1,NF-kB SEAP reporter activity,RAW-Dual [2]; [7],0.952
same,NF-kB SEAP reporter activity,RAW-Dual [2]; [8],1.04
CCC(=C(c1ccccc1)c1ccc(OCCN(C)C)cc1)c1ccccc1,NF-kB SEAP reporter activity,"RAW-Dual [2]; cytotoxicity flag (confluency mask): cytotoxic (confluency <70% of control), agonist: Imiquimod (TLR7) […]",1.53
same,NF-kB SEAP reporter activity,"RAW-Dual [2]; cytotoxicity flag (confluency mask): cytotoxic (confluency <70% of control), agonist: MPLA (TLR4) […]",1.52
CCC(=C(c1ccccc1)c1ccc(OCCN(C)C)cc1)c1ccccc1 (library stock concentration (final ~1000-fold dilution): 10 mM),NF-kB SEAP reporter activity,RAW-Dual [3]; agonist: LPS (TLR4) 0.1 ug/mL,0.687
same,NF-kB SEAP reporter activity,RAW-Dual [3]; [4],0.447
same,NF-kB SEAP reporter activity,RAW-Dual [3]; [5],0.398
same,NF-kB SEAP reporter activity,RAW-Dual [3]; [6],0.525
O=C1CCN(c2ccccc2)N1 (library stock concentration (final ~1000-fold dilution): 10 mM),NF-kB SEAP reporter activity,RAW-Dual [1]; agonist: LPS (TLR4) 0.1 ug/mL,1.15
same,NF-kB SEAP reporter activity,RAW-Dual [1]; [4],0.945
same,NF-kB SEAP reporter activity,RAW-Dual [1]; [5],0.862
same,NF-kB SEAP reporter activity,RAW-Dual [1]; [6],0.822
O=C1CCN(c2ccccc2)N1,NF-kB SEAP reporter activity,RAW-Dual [2]; [7],0.984
same,NF-kB SEAP reporter activity,RAW-Dual [2]; [8],1.13
COC(=O)Nc1ccc(-c2nc(N3CCOCC3)c3cnn(C4CCN(C(=O)OC)CC4)c3n2)cc1,NF-kB SEAP reporter activity,RAW-Dual [2]; [7],0.976
same,NF-kB SEAP reporter activity,RAW-Dual [2]; [8],0.895
COC(=O)Nc1ccc(-c2nc(N3CCOCC3)c3cnn(C4CCN(C(=O)OC)CC4)c3n2)cc1 (library stock concentration (final ~1000-fold dilution): 10 mM),NF-kB SEAP reporter activity,RAW-Dual [1]; agonist: LPS (TLR4) 0.1 ug/mL,0.888
same,NF-kB SEAP reporter activity,RAW-Dual [1]; [4],0.912
same,NF-kB SEAP reporter activity,RAW-Dual [1]; [5],0.867
same,NF-kB SEAP reporter activity,RAW-Dual [1]; [6],0.873
